# Source: paper PMC4336329 (PLoS ONE, 2015)
# The campaign covered roughly 310,000 compounds. About 14,000 (4.5%) showed an effect of 50% or more. Effects have a minus sign here. The list shows a part of the results.
# Biological target: human ether-à-go-go-related gene (hERG) potassium channel (human, UniProt Q12809)
# Experiment: primary screen, population patch clamp on CHO cells stably expressing hERG
# 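Further: peak tail current of the secondary pulse compared with the same well before compound.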
# human ether-à-go-go-related gene (hERG) potassium channel, sequence (Q12809 whole entry, looked up): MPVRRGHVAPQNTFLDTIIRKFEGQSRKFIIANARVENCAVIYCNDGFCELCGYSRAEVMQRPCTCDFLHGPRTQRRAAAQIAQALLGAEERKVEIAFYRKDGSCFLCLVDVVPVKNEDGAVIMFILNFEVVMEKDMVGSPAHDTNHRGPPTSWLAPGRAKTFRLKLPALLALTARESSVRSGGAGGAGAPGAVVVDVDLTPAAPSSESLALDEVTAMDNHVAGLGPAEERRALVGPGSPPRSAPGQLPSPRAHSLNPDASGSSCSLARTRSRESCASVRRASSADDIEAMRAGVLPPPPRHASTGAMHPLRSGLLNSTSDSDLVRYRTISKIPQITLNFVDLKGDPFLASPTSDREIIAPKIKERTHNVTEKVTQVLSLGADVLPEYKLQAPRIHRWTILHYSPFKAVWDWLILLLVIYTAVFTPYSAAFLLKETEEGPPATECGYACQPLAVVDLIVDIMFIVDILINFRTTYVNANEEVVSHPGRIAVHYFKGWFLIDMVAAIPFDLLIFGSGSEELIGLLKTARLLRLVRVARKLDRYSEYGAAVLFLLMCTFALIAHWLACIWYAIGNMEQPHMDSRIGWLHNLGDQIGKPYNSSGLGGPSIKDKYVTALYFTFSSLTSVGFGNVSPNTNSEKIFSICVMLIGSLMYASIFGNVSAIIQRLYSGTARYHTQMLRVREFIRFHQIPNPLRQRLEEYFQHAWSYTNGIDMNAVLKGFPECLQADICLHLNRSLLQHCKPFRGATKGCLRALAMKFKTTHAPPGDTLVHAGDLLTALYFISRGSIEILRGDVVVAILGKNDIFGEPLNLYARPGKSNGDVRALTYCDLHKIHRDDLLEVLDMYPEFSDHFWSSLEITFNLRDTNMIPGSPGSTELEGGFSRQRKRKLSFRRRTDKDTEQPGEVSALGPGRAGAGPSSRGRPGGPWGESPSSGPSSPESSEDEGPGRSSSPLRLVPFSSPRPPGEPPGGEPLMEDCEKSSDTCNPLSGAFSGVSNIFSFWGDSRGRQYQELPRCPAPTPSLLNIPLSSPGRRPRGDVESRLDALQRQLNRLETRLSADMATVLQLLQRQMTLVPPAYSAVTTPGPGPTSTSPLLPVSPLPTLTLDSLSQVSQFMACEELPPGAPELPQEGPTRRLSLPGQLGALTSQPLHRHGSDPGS
row,SMILES,"hERG current change (%, negative = inhibition) at 10uM [%]"
1,CC(C)Oc1cccc(NC(=O)c2cnccc2C(F)(F)F)c1,-0.311
2,COC(=O)c1c(NC(=O)COC(=O)Cn2cnc3ccccc32)sc2c1CCCC2,13.2
3,Cl.c1ccc(CN2C3=NCCCN3c3ccccc32)cc1,-57.5
4,O=C(O)C(c1ccccc1)N1C(=O)/C(=C/c2cccs2)SC1=S (centres unmarked),23.5
5,O=C(c1ccc(N2CCN(C(=O)c3ccccc3Br)CC2)cc1)c1cccc(F)c1,8.75
6,O=C(NCCC1=CCCCC1)c1cc(S(=O)(=O)N2CCOCC2)ccc1Cl,-3.55
7,CC(C)OCCCN1C=C2C(=O)C(C)(OC(=O)CCc3ccccc3)C(=O)C=C2C=C1c1ccc(C#N)cc1 (centres unmarked),-71.3
8,O=C(NCc1ccccc1Cl)c1ccc(CSc2nc3ccncc3[nH]2)cc1,-15.8
9,CN(C(=O)COC(=O)CCC(=O)c1ccccc1)c1c(N)n(Cc2ccccc2)c(=O)[nH]c1=O,14.1
10,c1cc2c(cnc3cscc32)s1,1.45
11,Cc1cc(=O)oc(C)c1C(=O)NCCN(C)Cc1ccccc1,8.33
12,CCc1cccc(NC(=O)Cn2c3[n+](c4ccc(C(F)(F)F)cc42)CCCCC3)c1.[Cl-],-14.3
13,Cc1cc(C)cc(NC(=O)CC2NCCNC2=O)c1 (centres unmarked),26.3
14,CCNC(=O)C1CCN(S(=O)(=O)c2ccc(F)cc2)CC1,6.31
15,CN1CCc2nc(N)c(C#N)c(-c3ccccc3)c2C1,-7.5
16,CN1C(=O)C(C)(C)c2cc(S(=O)(=O)N3CCC(C(=O)NCc4ccccc4Cl)CC3)ccc21,-18.1
17,Cc1ccc(NC(=O)c2cccs2)cc1NC(=O)c1ccccc1Cl,12.6
18,Cc1c(C)c2ccc(O[C@@H]3O[C@H](CO)[C@H](O)[C@H](O)[C@H]3O)c(C)c2oc1=O,14.3
19,O=C(O)Cc1sc(Nc2ccccc2)nc1-c1ccc(Cl)cc1,14.6
20,COc1cccc(N2CCN(Cc3ncc(-c4ccccc4)o3)CC2)c1,-13
21,COc1ccccc1CCNC(=O)C(=O)NCC1OCCN1S(=O)(=O)c1ccc([N+](=O)[O-])cc1 (centres unmarked),-46.7
22,CN1CCN(C(=S)NC(=O)c2ccc(-c3ccccc3)cc2)CC1,-48.4

row,SMILES,"hERG current change (%, negative = inhibition) at 10uM [%]"
1,CC(C)CCOCC(O)CCC(=O)NNC(=S)Nc1ccccc1 (centres unmarked),11.6
2,COC(=O)c1cccc(C(=O)Oc2cccc(Br)c2)n1,-3.42
3,COc1ccccc1CNC(=O)CCC(=O)N1Cc2cccc(OC)c2Oc2ncccc21,-6.77
4,CCOC(=O)Nc1cc2c(C)cc(=O)oc2cc1C,6.95
5,CCSc1sccc1C1C(C#N)=C(N)N(c2cccnc2)C2=C1C(=O)CCC2 (centres unmarked),-31.5
6,COc1cccc(CC2(CO)CCN(S(=O)(=O)N(C)C)CC2)c1,11.9
7,O=C(O)C[C@@H](CNC(=O)COc1ccc2ccc(=O)oc2c1)c1ccc(Cl)cc1,4.53
8,Cc1ccccc1OCCC(=O)N(CC(=O)Nc1ccccc1C(F)(F)F)Cc1ccco1,-11
9,CCc1nc(SCC(=O)NCc2ccco2)c2c3c(sc2n1)CCCC3,-20.1
10,CC(=O)c1cccc(NC(=O)CSc2nnc(-c3ccc(S(=O)(=O)N4CCCC4)cc3)o2)c1,-18.1
11,CCOc1ccc(N(CC(=O)NCCc2ccccc2)C(=O)CCC(=O)Nc2cc(C)ccn2)cc1,4.41
12,Cc1ccc(/C=N/Nc2ccccn2)s1,14.2
13,CC(C)N1CCC(N2CCN(C3CCCC3)CC2CCO)CC1 (centres unmarked),4.82
14,CCOC(=O)c1cnc2c(C)cccc2c1NCc1ccco1,-67.9
15,O=C(COc1ccc(S(=O)(=O)N2CCOCC2)cc1Cl)N1CCOCC1,15.1
16,OCCN(CC(O)Cn1ccc2ccccc21)CC(O)Cn1ccc2ccccc21 (centres unmarked),-1.89
17,CC(C)On1c(SCC(=O)N(C)C)nc2ccccc2c1=O,6.51
18,Cn1c(-c2ccc(F)cc2)cnc1NCc1cc2c(cc1[N+](=O)[O-])OCO2.O=C(O)C(=O)O,-57.8
19,CCOC(=O)C1CCN(C(=O)COC(=O)C2CCN(S(=O)(=O)c3ccc(C)c(C)c3)CC2)CC1,-3.24
20,O=S(=O)(c1ccccc1)N1CCN(c2nc(-c3cccs3)nc3ccccc23)CC1,9.84
21,COc1cc(C(=O)Nc2nnc(C(F)(F)F)s2)c([N+](=O)[O-])cc1OC,18.4
22,CN(c1ccccc1)S(=O)(=O)c1ccc(NC(=O)c2ccco2)cc1,6.72

row,SMILES,"hERG current change (%, negative = inhibition) at 10uM [%]"
1,O=C(c1cccc(C(F)(F)F)c1)C1CCCN(C(=O)CCn2cnnn2)C1 (centres unmarked),-8.45
2,C/C(=C\C(=O)c1ccc(Cl)cc1Cl)N(C)C,34
3,COc1cccc(/C=C2\SC(=S)N(CCCC(=O)N(CCO)c3ccccc3)C2=O)c1,8.96
4,CN1CCc2nc(NC(=O)COc3ccc4ccccc4c3)sc2C1,-56.2
5,Clc1ccc(-c2nnc3n2CCCC3)cc1Cl,-3.7
6,CCOc1ccc(/C=N/NC(=O)C2CC2)cc1OC,18.3
7,CC(=O)C(Sc1ccc2nnc(-c3ccncc3)n2n1)C(C)=O,-2.26
8,CCn1c(=S)sc2c(=O)n(CC(=O)NC(C)CCc3ccccc3)c(C)nc21 (centres unmarked),5.52
9,OC1(c2ccc(Cl)cc2)CCN(Cc2cn[nH]c2-c2ccc(F)cc2)CC1,-68.7
10,C[C@@H]1CCC(=O)N(CC[C@H](N=[N+]=[N-])c2ccccc2)CC1,-10.7
11,COc1cccc2cc(C(=O)Nc3cccnc3N3CCOCC3)c(=O)oc12,6.41
12,O=C(Cc1c[nH]c2ccccc12)OCCOC(=O)Cc1c[nH]c2ccccc12,10.1
13,CCn1c(SCC(=O)Nc2nc(C)c(C)s2)nnc1-c1cccnc1,-26.2
14,O=C(Nc1ccc(F)cc1F)NC1CCN(S(=O)(=O)c2ccc(F)cc2)CC1,9.78
15,C=CCC(O)(CCN1CCCCC1)c1ccccc1.Cl (centres unmarked),-10.8
16,Cc1cc(=O)n2nc(N3CCC(C(=O)NC(C)c4ccccc4)CC3)sc2n1 (centres unmarked),5.85
17,c1ccc(CSc2ncnc3c2cnn3Cc2ccccc2)cc1,14.9
18,Cc1nn(CC(=O)NCC(C)c2ccccc2)c(=O)c2cc(-c3ccccc3)nn12 (centres unmarked),22.3
19,Cc1ccc(-c2nnc(CSc3nnc(COc4ccccc4)n3-c3ccc(C)cc3)o2)cc1,-7.47
20,COc1ccc2c(c1OC)C(=O)OC2Nc1ncccc1C (centres unmarked),0.242
21,Cc1ccc(NC(=O)C(CC(C)C)NC(=O)C2CCC(C)CC2)nc1 (centres unmarked),-6.68
22,CCOc1c2ccc(C(=O)NCc3ccco3)cc2nn1CC,9.58

row,SMILES,"hERG current change (%, negative = inhibition) at 10uM [%]"
1,Cc1[nH]ncc1-c1ccccc1Cl,1.29
2,Cc1ccc(/C=N/N2CCN(Cc3ccc(Cl)cc3)CC2)o1,-23.4
3,COc1cccc(OC)c1C(=O)OCC(=O)/C(C#N)=C(\C)N,4.87
4,CCN(CC)CCN(C(=O)c1ccccc1OC)c1nc2ccc(F)cc2s1.Cl,-68.3
5,O=C(c1ccc(C(F)(F)F)cc1)C1CCCN(C(=O)Cn2cncn2)C1 (centres unmarked),-14.8
6,CCN(CC(=O)N1CCN(Cc2ccccc2)CC1)S(=O)(=O)c1ccc(F)cc1,-46
7,COc1ccc(S(=O)(=O)NCC(=O)NCc2cc(=O)n(C)c(=O)n2C)cc1,11.5
8,Cc1c(OC(C)C(=O)NCc2ccncc2)ccc2c3c(c(=O)oc12)CCCC3 (centres unmarked),-27.7
9,O=C(Cc1ccccc1[N+](=O)[O-])NNC(=O)c1ccncc1,-14.4
10,Cc1cc(C)c(S(=O)(=O)c2ccccc2)c(OC(=O)c2c(F)cccc2Cl)n1,0.037
11,NCCNc1ccc([N+](=O)[O-])c2cccnc12,1.29
12,COc1ccc(C2CC(=O)c3c(C)nc(N4CCN(c5ccccc5)CC4)nc3C2)cc1 (centres unmarked),3.44
13,O=C(O)CCC(=O)NCc1ccc2[nH]c3c(c2c1)CCCC3,-2.3
14,COCCN(C(=O)CCc1ccccc1OC)c1nnc(-c2cccnc2)s1,-37.1
15,O=C(NCc1ccccc1Cl)C1CCCN1C(=O)Nc1ccccc1 (centres unmarked),12.7
16,CN1CCN(/N=C/c2nc(-c3ccc(Cl)cc3)n3ccccc23)CC1,-62.1
17,COc1cccc(C(=O)N2CCC(O)(c3cccnc3)CC2)c1,-2.54
18,CC(=O)Nc1ccc(S(=O)(=O)NCc2nnnn2-c2ccc(Cl)cc2)cc1,2.31
19,CC1(C)CNC(=O)c2sc(NC(=O)c3ccccc3Cl)nc2C1,8.99
20,O=C(CN(Cc1ccccc1)C(=O)c1csnn1)NCc1ccc2c(c1)OCO2,-23.4
